Laboratory results reported in publication PMC4127532 (Journal of Medicinal Chemistry, 2014).

System: bovine parvovirus
Assay type: cell-based

`CCCC1(N)C2CC3CC(C2)CC1C3` (stereo not shown) [Compound 6, 2-n-Propyltricyclo[3.3.1.1^3,7]decan-2-amine] was tested, and the “effect on virus growth” value was “no effect”.
